Data published in the supplement of paper PMC11348887.
Where a name gives a salt, the structure may show the parent alone. The list shows a part of the results. Rule as the data show it: active = -2 or less and inactive = the rest. Repeats are few or missing, and single values can be far off.

These compounds were tested on hPSC-derived cortical neurons (WA09) (assay: nuclei number (viability) z-score; higher = more surviving cells). Details: 5 µM; treatment: days 7-14 after plating, readout day 21.
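Also: nuclei counted from DAPI counterstain by automated high-content image analysis, four fields per well at ×20 in 384-well plates, with sequential b-score then z-score normalization.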

SMILES	nuclei number (z-score)
O=C(O)CNC(=O)c1c(O)c2ccccc2n(Cc2ccccc2)c1=O	inactive: -0.352
CC(=O)OC1CN2CCC1CC2 (stereo not given) [Aceclidine HCl]	inactive: 0.269
CC[C@@]1(O)C(=O)OCc2c1cc1n(c2=O)Cc2cc3ccccc3nc2-1 [Camptothecin]	inactive: -0.498
CC(C)=CCC[C@]1(C)C=Cc2c(O)c3c(c(CC=C(C)C)c2O1)O[C@]12C(=C[C@@H]4C[C@H]1C(C)(C)O[C@@]2(C/C=C(/C)C(=O)O)C4=O)C3=O [Gambogic Acid]	active: -7.63
CCNC(=O)C[C@@H]1N=C(c2ccc(Cl)cc2)c2cc(OC)ccc2-n2c(C)nnc21	active: -3.69
CN1c2ccccc2C(NCCCCCCC(=O)O)c2ccc(Cl)cc2S1(=O)=O (stereo not given) [Tianeptine sodium]	inactive: 0.387
C[C@H]1CCC/C=C/[C@@H]2C[C@H](O)C[C@H]2[C@H](O)/C=C/C(=O)O1 [Brefeldin A]	active: -7.66
COc1cc(-n2c(=S)[nH]c3ccccc3c2=O)c(Cl)cc1Cl [Mdivi-1]	inactive: 2.86
CCCN1C[C@H](CSC)C[C@@H]2c3cccc4[nH]cc(c34)C[C@H]21 [Pergolide mesylate]	inactive: 0.908
CC(=O)Nc1ccc(Cc2ccc(NC(C)=O)cc2)cc1	inactive: 1.68
CC1=C(O)C(=O)C=C2C1=CC=C1[C@@]2(C)CC[C@@]2(C)[C@@H]3C[C@](C)(C(=O)O)CC[C@]3(C)CC[C@]12C [Celastrol]	inactive: -0.733
O=C(O)CCCc1ccc(N(CCCl)CCCl)cc1 [Chloroambucil]	inactive: 0.0963
CC[C@@H](C(N)=O)N1CCCC1=O [Levetiracetam]	inactive: 0.482
COc1ccc(C(=O)N2CCCC2=O)cc1 [Aniracetam]	inactive: 2.37
O=C(O[C@H]1C[C@H]2CC[C@@H](C1)[N+]21CCCC1)C(O)(c1ccccc1)c1ccccc1 [Trospium chloride]	inactive: 5.36
CN(C)Cc1c[nH]c2ccccc12 [Gramine]	inactive: -0.92
NC(=O)C[S@@+]([O-])C(c1ccccc1)c1ccccc1 [Armodafinil]	inactive: -0.193
NC(=O)CN1CC(O)CC1=O (stereo not given) [Oxiracetam]	inactive: -0.0522
COc1cc([C@@H]2c3cc4c(cc3[C@H](O)[C@H]3COC(=O)[C@@H]23)OCO4)cc(OC)c1OC [Picropodophyllin (PPP)]	active: -4.75
CN1CCC(c2c[nH]c3ccc(O)cc23)CC1	inactive: -1.14
C1=C2CCCN[C@H]2[C@@H]2C[C@H]1[C@H]1CCCCN1C2 [Aloperine]	inactive: 0.142
CCOC(=O)c1cncn1[C@H](C)c1ccccc1 [Etomidate]	inactive: 1.85

SMILES	nuclei number (z-score)
CCN1CCN(C(=O)Cc2ccc(Nc3ncc(F)c(Nc4ccc(C(=O)Nc5ccccc5Cl)cc4)n3)cc2)CC1 [Aurora A Inhibitor I]	inactive: -1.75
CN1CCc2cc3c(cc2C1C1OC(=O)c2c1ccc1c2OCO1)OCO3 (single isomer, unassigned; (+)) [(+)-Bicuculline]	inactive: 0.0263
CC(O)(CS(=O)(=O)c1ccc(F)cc1)C(=O)Nc1ccc(C#N)c(C(F)(F)F)c1 (stereo not given) [Bicalutamide]	inactive: 0.557
C=C1CC[C@@]2(O)[C@H]3Cc4ccc(O)c5c4[C@@]2(CCN3CC2CC2)[C@H]1O5 [Nalmefene HCl]	inactive: 0.67
O=c1cccc2n1C[C@@H]1CNC[C@H]2C1 [Cytisine]	inactive: 4.32
NCC1(CC(=O)O)CCCCC1 [Gabapentin HCl]	inactive: 0.0107
NCC1(CC(=O)O)CCCCC1 [Gabapentin]	inactive: 2.35
O=C(O)c1nn(Cc2ccc(Cl)cc2Cl)c2ccccc12 [Lonidamine]	inactive: 1.88
Cc1cc(C(C#N)c2ccc(Cl)cc2)c(Cl)cc1NC(=O)c1cc(I)cc(I)c1O (stereo not given) [Closantel]	inactive: 2.52
Cc1cc(C(C#N)c2ccc(Cl)cc2)c(Cl)cc1NC(=O)c1cc(I)cc(I)c1O (stereo not given) [Closantel Sodium]	inactive: 0.0693
CC(C)(C)c1cc(C=C(C#N)C#N)cc(C(C)(C)C)c1O [Tyrphostin 9]	inactive: 1.35
c1ccc([C@@H]2C[C@H]2NC2CCNCC2)cc1	inactive: 0.634
COc1ccc(CC2NCCc3cc(OC)c(OC)cc32)cc1OC (stereo not given) [Tetrahydropapaverine HCl]	inactive: -0.36
C[C@]12CC[C@H](O)CC1=CC[C@@H]1[C@@H]2CC[C@]2(C)C(=O)CC[C@@H]12 [Dehydroepiandrosterone (DHEA)]	inactive: 0.178
O=C(O)CNC(=O)C1C(=O)N(C2CCCCC2)C(=O)N(C2CCCCC2)C1=O	inactive: 0.193
CC(C)OC(=O)[C@H](C)N[P@](=O)(CO[C@H](C)Cn1cnc2c(N)ncnc21)Oc1ccccc1 [Tenofovir Alafenamide (GS-7340)]	inactive: -0.767
O=[N+]([O-])c1ncc[nH]1 [Azomycin]	inactive: -0.68
CC[C@H](C)[C@@H]([C@@H](CC(=O)N1CCC[C@H]1[C@H](OC)[C@@H](C)C(=O)N[C@H](C)[C@@H](O)c1ccccc1)OC)N(C)C(=O)[C@@H](NC(=O)[C@@H](NC)C(C)C)C(C)C [Monomethyl auristatin E (MMAE)]	active: -5.46
Cc1cccc(Cc2c[nH]cn2)c1C [Detomidine HCl]	inactive: 0.27
Cc1cccc(C)c1NC(=O)CN1CCCC1=O [Nefiracetam]	inactive: 1.08
NC(=O)c1cc(N2CC2)c([N+](=O)[O-])cc1[N+](=O)[O-]	inactive: 0.359
Cn1cc(C2=C(c3cn(C4CCN(Cc5ccccn5)CC4)c4ccccc34)C(=O)NC2=O)c2ccccc21	inactive: -0.717

SMILES	nuclei number (z-score)
C[C@@H]1CC[C@@]2(OC1)O[C@H]1C[C@H]3[C@@H]4CC=C5C[C@@H](O[C@@H]6O[C@H](CO)[C@@H](O[C@@H]7O[C@@H](C)[C@H](O)[C@@H](O)[C@H]7O)[C@H](O)[C@H]6O[C@@H]6O[C@@H](C)[C@H](O)[C@@H](O)[C@H]6O)CC[C@]5(C)[C@H]4CC[C@]3(C)[C@H]1[C@@H]2C [Dioscin]	active: -3.37
C=CCN1CC[C@]23c4c5ccc(O)c4O[C@H]2C(=O)CC[C@@]3(O)[C@H]1C5 [Naloxone HCl Dihydrate]	inactive: 1.94
C=CCN1CC[C@]23c4c5ccc(O)c4O[C@H]2C(=O)CC[C@@]3(O)[C@H]1C5 [Naloxone HCl]	inactive: 0.0366
CNC1CC(N)C(O)C(OC2OC(CO)C(O)C3OC4(OC(C(N)CO)C(O)C(O)C4O)OC23)C1O (stereo not given) [Hygromycin B]	active: -3.43
O=C1C=CC[C@@H]2[C@H]3CCCN4CCC[C@@H](CN12)[C@@H]34 [Sophocarpine]	inactive: 0.107
CC(=O)O[C@H]1C[C@@H]2CC[C@@H]3[C@H](CC[C@@]4(C)[C@H]3C[C@H]([N+]3(C)CCCCC3)[C@@H]4OC(C)=O)[C@@]2(C)C[C@@H]1[N+]1(C)CCCCC1 [Pancuronium dibromide]	inactive: 0.0928
O=C(NCC1CCOCC1)c1cnc(Nc2ccc(Cl)cc2Cl)nc1C(F)(F)F	inactive: -0.605
COC(=O)[C@@H](N)CCCNC(=N)N[N+](=O)[O-]	inactive: 0.594
CN1CCCCC1Cn1cc(C(=O)c2cc([N+](=O)[O-])ccc2I)c2ccccc21 (stereo not given)	inactive: 6.52
NCC(O)c1ccc(O)cc1 (stereo not given) [(+_-)-Octopamine HCl]	inactive: 0.665
O=c1ccc2cc(O[C@@H]3O[C@H](CO)[C@@H](O)[C@H](O)[C@H]3O)c(O)cc2o1 [Esculin]	inactive: 0.0474
O=C(O)C(=O)c1cn(Cc2ccccc2)c2ccc(-c3ccc(OC(F)(F)F)cc3)cc12 [Tiplaxtinin (PAI-039)]	inactive: 0.578
c1ccc2c(c1)Nc1ccccc1S2 [Phenothiazine]	inactive: -0.381
CC(C)[C@]12O[C@H]1[C@@H]1O[C@]13[C@]1(O[C@H]1C[C@H]1C4=C(CC[C@@]13C)C(=O)OC4)[C@@H]2O [Triptolide (PG490)]	inactive: 0.62
CC(C)(C)c1cc(C=C(C#N)C#N)cc(Br)c1O	inactive: 1.09
NC[C@H](CC(=O)O)c1ccc(Cl)cc1 [(R)-baclofen]	inactive: 4.03
CC(NC(C)(C)C)C(=O)c1cccc(Cl)c1 (stereo not given) [Amfebutamone HCl]	inactive: -0.955
CN[C@@H]1[C@@H](O)[C@@H](O[C@@H]2[C@@H](O)[C@H](O[C@H]3O[C@H](CN)CC[C@H]3N)[C@@H](N)C[C@H]2N)OC[C@]1(C)O.CN[C@@H]1[C@@H](O)[C@@H](O[C@@H]2[C@@H](O)[C@H](O[C@H]3O[C@H]([C@@H](C)N)CC[C@H]3N)[C@@H](N)C[C@H]2N)OC[C@]1(C)O.CN[C@@H]1[C@@H](O)[C@@H](O[C@@H]2[C@@H](O)[C@H](O[C@H]3O[C@H]([C@@H](C)NC)CC[C@H]3N)[C@@H](N)C[C@H]2N)OC[C@]1(C)O [Gentamicin Sulfate]	inactive: -0.613
Cn1c(CCCC(=O)O)nc2cc(N(CCCl)CCCl)ccc21 [Bendamustine HCl]	inactive: 0.587
O=C1CC[C@@]2(O)[C@H]3Cc4ccc(O)c5c4[C@@]2(CCN3CC2CC2)[C@H]1O5 [Naltrexone HCl]	inactive: -0.346
Cc1sc2c(c1C)C(c1ccc(Cl)cc1)=N[C@@H](CC(N)=O)c1nnc(C)n1-2	active: -3.89
